From publication PMC9911399, “Two distinct binding modes provide the RNA-binding protein RbFox with extraordinary sequence specificity”
Numbering of substitutions follows the chain as printed; changes in the protein carry UniProt numbers. The list shows a part of the results.

T1: RBFOX1 RRM RbFoxmut (Fox-RRM*) (Homo sapiens, UniProt Q9NWB1 109-208, R118D;E147R;N151S;E152T)
T1 sequence: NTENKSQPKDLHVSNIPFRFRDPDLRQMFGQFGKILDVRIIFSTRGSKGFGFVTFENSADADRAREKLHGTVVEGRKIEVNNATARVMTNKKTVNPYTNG

B1: AUUUACA (DNA:RNA)
RNA: GGGAGACCGGAAUUCAGAUUGUCCAUUUACAUUAAAUCCCGUCGUAGCCACCA
DNA 1: CAATCTGAATTCCGGTCTCCC
DNA 2: TGGTGGCTACGACGGGATT
B2: GUGUACU (DNA:RNA)
RNA: B1 RNA with A25G, U27G, A31U
DNA 1: CAATCTGAATTCCGGTCTCCC
DNA 2: TGGTGGCTACGACGGGATT
B3: UACAGCC (DNA:RNA)
RNA: B1 RNA with A25U, U26A, U27C, U28A, A29G, A31C
DNA 1: CAATCTGAATTCCGGTCTCCC
DNA 2: TGGTGGCTACGACGGGATT
B4: CGUGACA (DNA:RNA)
RNA: B1 RNA with A25C, U26G, U28G
DNA 1: CAATCTGAATTCCGGTCTCCC
DNA 2: TGGTGGCTACGACGGGATT
B5: UCUAGGA (DNA:RNA)
RNA: B1 RNA with A25U, U26C, U28A, A29G, C30G
DNA 1: CAATCTGAATTCCGGTCTCCC
DNA 2: TGGTGGCTACGACGGGATT
B6: AGUCACG (DNA:RNA)
RNA: B1 RNA with U26G, U28C, A31G
DNA 1: CAATCTGAATTCCGGTCTCCC
DNA 2: TGGTGGCTACGACGGGATT
B7: GAGGGCG (DNA:RNA)
RNA: B1 RNA with A25G, U26A, U27G, U28G, A29G, A31G
DNA 1: CAATCTGAATTCCGGTCTCCC
DNA 2: TGGTGGCTACGACGGGATT
B8: GAAAUGA (DNA:RNA)
RNA: B1 RNA with A25G, U26A, U27A, U28A, A29U, C30G
DNA 1: CAATCTGAATTCCGGTCTCCC
DNA 2: TGGTGGCTACGACGGGATT
B9: GUGAGUC (DNA:RNA)
RNA: B1 RNA with A25G, U27G, U28A, A29G, C30U, A31C
DNA 1: CAATCTGAATTCCGGTCTCCC
DNA 2: TGGTGGCTACGACGGGATT
B10: UGCGGCA (DNA:RNA)
RNA: B1 RNA with A25U, U26G, U27C, U28G, A29G
DNA 1: CAATCTGAATTCCGGTCTCCC
DNA 2: TGGTGGCTACGACGGGATT
B11: CGGACUA (DNA:RNA)
RNA: B1 RNA with A25C, U26G, U27G, U28A, A29C, C30U
DNA 1: CAATCTGAATTCCGGTCTCCC
DNA 2: TGGTGGCTACGACGGGATT
B12: CGUUCGC (DNA:RNA)
RNA: B1 RNA with A25C, U26G, A29C, C30G, A31C
DNA 1: CAATCTGAATTCCGGTCTCCC
DNA 2: TGGTGGCTACGACGGGATT
B13: CGACUUA (DNA:RNA)
RNA: B1 RNA with A25C, U26G, U27A, U28C, A29U, C30U
DNA 1: CAATCTGAATTCCGGTCTCCC
DNA 2: TGGTGGCTACGACGGGATT
B14: CCGAUGG (DNA:RNA)
RNA: GGGAGACCGGAAUUCAGAUUGUCCCCGAUGGUUAAAUCCCGUCGUAGCCACCA
DNA 1: CAATCTGAATTCCGGTCTCCC
DNA 2: TGGTGGCTACGACGGGATT
B15: AAGACUA (DNA:RNA)
RNA: B1 RNA with U26A, U27G, U28A, A29C, C30U
DNA 1: CAATCTGAATTCCGGTCTCCC
DNA 2: TGGTGGCTACGACGGGATT
B16: CCUCCUG (DNA:RNA)
RNA: B14 RNA with G27U, A28C, U29C, G30U
DNA 1: CAATCTGAATTCCGGTCTCCC
DNA 2: TGGTGGCTACGACGGGATT
B17: AGUCUUA (DNA:RNA)
RNA: B1 RNA with U26G, U28C, A29U, C30U
DNA 1: CAATCTGAATTCCGGTCTCCC
DNA 2: TGGTGGCTACGACGGGATT
B18: GCUCAAU (DNA:RNA)
RNA: B1 RNA with A25G, U26C, U28C, C30A, A31U
DNA 1: CAATCTGAATTCCGGTCTCCC
DNA 2: TGGTGGCTACGACGGGATT
B19: CUGGAGC (DNA:RNA)
RNA: B14 RNA with C26U, A28G, U29A, G31C
DNA 1: CAATCTGAATTCCGGTCTCCC
DNA 2: TGGTGGCTACGACGGGATT
B20: CGGAAUA (DNA:RNA)
RNA: B14 RNA with C26G, U29A, G30U, G31A
DNA 1: CAATCTGAATTCCGGTCTCCC
DNA 2: TGGTGGCTACGACGGGATT
B21: AGCAUCU (DNA:RNA)
RNA: B1 RNA with U26G, U27C, U28A, A29U, A31U
DNA 1: CAATCTGAATTCCGGTCTCCC
DNA 2: TGGTGGCTACGACGGGATT
B22: UGCUCGG (DNA:RNA)
RNA: B14 RNA with C25U, C26G, G27C, A28U, U29C
DNA 1: CAATCTGAATTCCGGTCTCCC
DNA 2: TGGTGGCTACGACGGGATT
B23: UGUCUGA (DNA:RNA)
RNA: B1 RNA with A25U, U26G, U28C, A29U, C30G
DNA 1: CAATCTGAATTCCGGTCTCCC
DNA 2: TGGTGGCTACGACGGGATT
B24: GUGCGUC (DNA:RNA)
RNA: B1 RNA with A25G, U27G, U28C, A29G, C30U, A31C
DNA 1: CAATCTGAATTCCGGTCTCCC
DNA 2: TGGTGGCTACGACGGGATT
B25: CGCGACA (DNA:RNA)
RNA: B1 RNA with A25C, U26G, U27C, U28G
DNA 1: CAATCTGAATTCCGGTCTCCC
DNA 2: TGGTGGCTACGACGGGATT
B26: AGUACCA (DNA:RNA)
RNA: B1 RNA with U26G, U28A, A29C
DNA 1: CAATCTGAATTCCGGTCTCCC
DNA 2: TGGTGGCTACGACGGGATT
B27: AAGCUAG (DNA:RNA)
RNA: B14 RNA with C25A, C26A, A28C, G30A
DNA 1: CAATCTGAATTCCGGTCTCCC
DNA 2: TGGTGGCTACGACGGGATT
B28: UUAAGAG (DNA:RNA)
RNA: B14 RNA with C25U, C26U, G27A, U29G, G30A
DNA 1: CAATCTGAATTCCGGTCTCCC
DNA 2: TGGTGGCTACGACGGGATT
B29: CAGGAUU (DNA:RNA)
RNA: B14 RNA with C26A, A28G, U29A, G30U, G31U
DNA 1: CAATCTGAATTCCGGTCTCCC
DNA 2: TGGTGGCTACGACGGGATT
B30: CAAACGG (DNA:RNA)
RNA: B14 RNA with C26A, G27A, U29C
DNA 1: CAATCTGAATTCCGGTCTCCC
DNA 2: TGGTGGCTACGACGGGATT
B31: GGGAGCU (DNA:RNA)
RNA: B14 RNA with C25G, C26G, U29G, G30C, G31U
DNA 1: CAATCTGAATTCCGGTCTCCC
DNA 2: TGGTGGCTACGACGGGATT

These binders were tested against T1, RBFOX1 RRM RbFoxmut (Fox-RRM*) (assay: EMSA; HiTS-Eq, 1 nM pool, 10 min; buffer printed only for the single-RNA assays: 10 mM Tris pH 7.5, 150 mM NaCl, 3.4 mM EDTA, 0.001% NP-40, 30 C). Conditions: tags: His6 N-terminal (pET28a); label: 5' 32P.
Procedure, shortened: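 A pool of RNA with 7 randomized nucleotides, 5′-radiolabelled and with DNA-annealed flanks, was equilibrated at 1 nM for 10 min in 50 µL with purified RbFox RRM, wild type or mutant, across increasing protein concentrations. Free RNA was separated by 8% native PAGE, excised, reverse-transcribed, barcoded by PCR and sequenced. Relative association constants were obtained from read-count changes of each RNA species versus the control reaction and normalised to the cognate motif.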

**Q.** With B1 as the binder, how does the binding signal read?
**A.** The binding signal was 0.119 KA relative to UGCAUGU.

**Q.** Which binding signal does the source give for B2 here?
**A.** Its binding signal is 0.101 KA relative to UGCAUGU.

**Q.** Which binding signal does the source give for B3 here?
**A.** Its binding signal is 0.0958 KA relative to UGCAUGU.

**Q.** How did the binding signal turn out when B4 was run?
**A.** The binding signal was 0.0765 KA relative to UGCAUGU.

**Q.** How did the binding signal turn out when B5 was run?
**A.** The binding signal was 0.0664 KA relative to UGCAUGU.

**Q.** B6 was tested. Which binding signal did it give?
**A.** Its binding signal is 0.0661 KA relative to UGCAUGU.

**Q.** With B7 as the binder, how does the binding signal read?
**A.** The binding signal was 0.0994 KA relative to UGCAUGU.

**Q.** How did the binding signal turn out when B8 was run?
**A.** Its binding signal is 0.0974 KA relative to UGCAUGU.

**Q.** For B9, which binding signal is on record?
**A.** Its binding signal is 0.138 KA relative to UGCAUGU.

**Q.** How did the binding signal turn out when B10 was run?
**A.** The binding signal was 0.162 KA relative to UGCAUGU.

**Q.** For B11, which binding signal is on record?
**A.** The binding signal was 0.107 KA relative to UGCAUGU.

**Q.** With B12 as the binder, how does the binding signal read?
**A.** The binding signal was 0.117 KA relative to UGCAUGU.

**Q.** For B13, which binding signal is on record?
**A.** Its binding signal is 0.111 KA relative to UGCAUGU.

**Q.** How did the binding signal turn out when B14 was run?
**A.** The binding signal was 0.0944 KA relative to UGCAUGU.

**Q.** Which binding signal does the source give for B15 here?
**A.** Its binding signal is 0.0896 KA relative to UGCAUGU.

**Q.** B16 was tested. Which binding signal did it give?
**A.** The binding signal was 0.0786 KA relative to UGCAUGU.

**Q.** For B17, which binding signal is on record?
**A.** Its binding signal is 0.0951 KA relative to UGCAUGU.

**Q.** How did the binding signal turn out when B18 was run?
**A.** The binding signal was 0.063 KA relative to UGCAUGU.

**Q.** Which binding signal does the source give for B19 here?
**A.** The binding signal was 0.103 KA relative to UGCAUGU.

**Q.** Which binding signal does the source give for B20 here?
**A.** The binding signal was 0.153 KA relative to UGCAUGU.

**Q.** For B21, which binding signal is on record?
**A.** Its binding signal is 0.302 KA relative to UGCAUGU.

**Q.** Which binding signal does the source give for B22 here?
**A.** The binding signal was 0.153 KA relative to UGCAUGU.

**Q.** With B23 as the binder, how does the binding signal read?
**A.** Its binding signal is 0.164 KA relative to UGCAUGU.

**Q.** For B24, which binding signal is on record?
**A.** The binding signal was 0.172 KA relative to UGCAUGU.

**Q.** With B25 as the binder, how does the binding signal read?
**A.** Its binding signal is 0.0568 KA relative to UGCAUGU.

**Q.** How did the binding signal turn out when B26 was run?
**A.** Its binding signal is 0.0629 KA relative to UGCAUGU.

**Q.** With B27 as the binder, how does the binding signal read?
**A.** The binding signal was 0.124 KA relative to UGCAUGU.

**Q.** How did the binding signal turn out when B28 was run?
**A.** Its binding signal is 0.0992 KA relative to UGCAUGU.

**Q.** Which binding signal does the source give for B29 here?
**A.** Its binding signal is 0.0826 KA relative to UGCAUGU.

**Q.** B30 was tested. Which binding signal did it give?
**A.** The binding signal was 0.0437 KA relative to UGCAUGU.

**Q.** Which binding signal does the source give for B31 here?
**A.** The binding signal was 0.0724 KA relative to UGCAUGU.
